# PMC4336329 (PLoS ONE, 2015)
# The campaign covered roughly 310,000 compounds. About 2,200 (0.71%) showed an effect of 50% or more. The effect is printed as a negative number. Some of the results follow.
# Target: human ether-à-go-go-related gene (hERG) potassium channel (human, UniProt Q12809)
# Experiment: primary screen, population patch clamp on CHO cells stably expressing hERG
# Sequence of human ether-à-go-go-related gene (hERG) potassium channel (Q12809 whole entry, looked up): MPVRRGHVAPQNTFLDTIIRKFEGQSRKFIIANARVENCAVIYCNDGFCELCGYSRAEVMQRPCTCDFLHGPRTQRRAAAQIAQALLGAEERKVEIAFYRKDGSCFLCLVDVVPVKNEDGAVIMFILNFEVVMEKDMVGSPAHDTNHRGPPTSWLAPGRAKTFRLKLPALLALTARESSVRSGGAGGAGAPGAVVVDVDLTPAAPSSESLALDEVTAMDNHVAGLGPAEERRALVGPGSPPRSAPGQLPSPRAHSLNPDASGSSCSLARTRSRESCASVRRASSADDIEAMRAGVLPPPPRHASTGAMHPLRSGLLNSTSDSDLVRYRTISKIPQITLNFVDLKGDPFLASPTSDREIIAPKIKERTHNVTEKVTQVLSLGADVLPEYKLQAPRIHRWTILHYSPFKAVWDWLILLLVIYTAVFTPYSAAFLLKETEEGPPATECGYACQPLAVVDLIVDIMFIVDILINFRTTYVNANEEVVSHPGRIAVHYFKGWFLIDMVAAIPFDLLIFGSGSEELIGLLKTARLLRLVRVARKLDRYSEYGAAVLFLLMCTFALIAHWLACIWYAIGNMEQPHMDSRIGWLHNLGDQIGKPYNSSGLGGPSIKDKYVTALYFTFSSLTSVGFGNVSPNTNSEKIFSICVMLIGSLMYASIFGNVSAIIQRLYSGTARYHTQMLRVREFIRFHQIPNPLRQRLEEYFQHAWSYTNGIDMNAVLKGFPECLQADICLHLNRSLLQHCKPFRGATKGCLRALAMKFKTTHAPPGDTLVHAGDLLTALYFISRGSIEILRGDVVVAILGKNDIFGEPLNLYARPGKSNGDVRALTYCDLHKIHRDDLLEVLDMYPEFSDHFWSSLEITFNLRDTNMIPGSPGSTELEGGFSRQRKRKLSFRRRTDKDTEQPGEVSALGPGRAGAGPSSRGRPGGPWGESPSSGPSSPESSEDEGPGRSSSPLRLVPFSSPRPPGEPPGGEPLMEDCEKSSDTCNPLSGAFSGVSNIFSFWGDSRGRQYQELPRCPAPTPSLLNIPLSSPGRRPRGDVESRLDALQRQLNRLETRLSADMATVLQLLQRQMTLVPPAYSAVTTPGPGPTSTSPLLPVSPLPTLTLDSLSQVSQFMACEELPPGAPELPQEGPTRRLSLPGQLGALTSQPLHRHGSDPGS
row,SMILES,"hERG current change (%, negative = inhibition) at 1uM [%]"
1,COCCNC(C(=O)Nc1cc(Cl)cc(Cl)c1)c1ccccc1 (stereo not drawn),4.71
2,CCc1c(C)c(C#N)c2nc3ccccc3n2c1N(C)C,9.46
3,CCn1c(SCC(=O)NCC2CCCO2)nnc1-c1ccc(S(=O)(=O)N2CCN(C)CC2)cc1 (stereo not drawn),8.9
4,O=C(N/N=C/c1ccccn1)C12CC3CC(CC(C3)C1)C2,8.79
5,CCCOc1cccc(-c2nnc(NC(=O)c3ccco3)s2)c1,-6.8
6,O=C(NCc1ccccc1)c1ncn[nH]1,6.05
7,CC(=O)NC(Cc1ccc(F)cc1)C(=O)NC1CCN(C(=O)Nc2cccc(C)c2)CC1 (stereo not drawn),13.1
8,CC(=O)c1cccc(N2C(=NC(=O)COc3ccccc3)SC3CS(=O)(=O)CC32)c1 (stereo not drawn),16.7
9,C/C(=N\NC(=O)COc1ccccc1-c1ccccc1)c1ccc(O)cc1O,16.4
10,CCOC(=O)Cc1csc(NC(=O)c2ccc(S(=O)(=O)N3CCOCC3)cc2)n1,6.98
11,CCC(=O)NC(=S)Nc1ccc(S(=O)(=O)NC(C)C)cc1,-4.95
12,Cc1nc2cc(C(=O)NCc3cccnc3)ccc2n1-c1ccc(F)cc1F,6.7
13,Cc1ccc(C(C(=O)NCc2ccco2)N(C(=O)CNC(=O)c2cccs2)c2c(C)cccc2C)cc1 (stereo not drawn),13.1
14,CC1(C)COC(Nc2ccc(Cl)cc2)=N1,11.7
15,CCCN1CCN(CCCNC(=O)c2cc3c(=O)n(C)c4ccccc4c3n2C)CC1,4.91
16,COc1ccc(N2C(=O)c3ccc(C(=O)Nc4ccccc4O)cc3C2=O)cc1,14.7
17,Cc1ccc(S(=O)(=O)Nc2nsc(N)n2)cc1,13.9
18,C/C(CC(=O)Nc1cc(Cl)ccc1Cl)=N\NC(=O)c1ccccc1Br,7.09
19,Cc1cc(-n2cnc(-c3cn[nH]c3C)n2)no1,14
20,CN(C)c1ccc(Cl)cc1N.Cl,6.95
21,Cc1ccc(NC(=O)COC(=O)CCCC2=NS(=O)(=O)c3ccccc3N2)cc1C,10.8
22,COC(=O)c1ccc(NC(=O)C23CCC(C)(C(=O)O2)C3(C)C)cc1 (stereo not drawn),9.91
23,COc1ccc(/C=N\NS(=O)(=O)c2ccc(Br)cc2)cc1COc1ccccc1[N+](=O)[O-],13.1

row,SMILES,"hERG current change (%, negative = inhibition) at 1uM [%]"
1,O=C1COC(c2ccccc2)C2CCCCN12 (stereo not drawn),12.4
2,O=c1c2cnn(-c3ccccc3)c2nc(-c2cccs2)n1-c1ccc(Br)cc1,-6.26
3,Cc1nnc(NC(=O)c2ccc(S(=O)(=O)N(C)c3ccccc3)cc2)s1,11.9
4,Cc1ccc(S(=O)(=O)NNC(=O)Cc2cccn2C)cc1,15.4
5,Cc1ccc(C)c(OCCC(=O)NNC(=O)c2ccccc2)c1,10.8
6,Cn1c2c(c(=O)n(C)c1=O)C(CC(=O)Nc1ccccc1F)C(=O)N2 (stereo not drawn),14.2
7,CC1CC(CC(=O)NC(=S)Nc2ccccc2Cl)C(=O)O1 (stereo not drawn),19.6
8,CC(=O)Nc1cc(C(=O)O)ccc1S(=O)(=O)c1ccc(C)cc1,6.45
9,CC(=O)c1sc(NC(=O)c2ccc(COc3ccccc3Cl)o2)nc1C,16.4
10,CCCC(C(=O)OCC)P(=O)(c1ccccc1)c1ccccc1 (stereo not drawn),-0.896
11,COC(=O)Cc1[nH]c(Cl)nc1C(N)=O,11.4
12,CC(=O)c1ccc(NC(=O)[C@@H]2CCCN2C2=NS(=O)(=O)c3ccccc32)cc1,8.48
13,O=C(Nc1ccc2ccccc2c1)N1C[C@H]2C[C@@H](C1)c1cccc(=O)n1C2,9.9
14,C=CCN1CC(=O)N2C(C)c3[nH]c4ccccc4c3C[C@H]2C1=O (stereo partly drawn),15.5
15,CN(C)CCNC(=O)/C(=N\O)c1ccccn1,7.21
16,CCC1(CC)NC(=O)N(CC(=O)OC(C)C(=O)Nc2ccccc2OC)C1=O (stereo not drawn),25.9
17,CC(=O)Nc1sc2c(c1C(N)=O)CCCC2,23.9
18,CC(=O)N=c1sc2c3ccccc3ccc2n1C,13.9
19,O=C(/C=C/NNC(=O)c1ccccc1)c1ccc(Br)cc1,4.11
20,COc1cc(/C=C2\SC(=S)N(CCC(=O)Nc3ccccc3)C2=O)cc(OC)c1OC,5.17
21,O=C(O)CC1(CC(=O)NCc2csc(-c3cccs3)n2)CCCCC1,5.04
22,Cc1cccc(-n2c(O)c(C=Nc3ccc4c(c3)OCO4)c3ccccc3c2=O)n1,7.07
